This assay concerns the target Genome polyprotein (dengue virus type 2) (UniProt P29990).
Where [1] appears, read: Thailand/16681/1984, Concentration 25.0 uM, Number of replicates 1.0.

As a reminder, the inhibition is the drop in the measured response relative to a control, in per cent.

About 110 (5.5%) of roughly 2,000 compounds showed an effect of 50% or more. This is one part of the list.

Take `CCc1ccc(-c2ccccc2C(=O)Nc2cnn(C)c2)c(F)c1`: the inhibition is, setting by setting: (Thailand/16681/1984, Concentration 49.5 uM, Number of replicates 2.0, Standard deviation 0.8455770066617545 %) -0.985%; (Thailand/16681/1984, Concentration 99.01 uM, Number of replicates 2.0, Standard deviation 1.2261793384720772 %) -0.538%; (Thailand/16681/1984, Concentration 198.0 uM, Number of replicates 2.0, Standard deviation 2.01798052784263 %) 0.736%.

In the case of `NC(=O)C1(N2CCCCC2)CCN(C(=O)C2CCN(c3ccc(C=O)cc3)CC2)CC1`, the inhibition under setting [1] turned out to be 14.5%.

In the case of `O=Cc1ccc(N2CCC(C(=O)NCCN3C(=O)c4ccccc4C3=O)CC2)cc1`, the inhibition under setting [1] was 13.3%.

Take `O=Cc1ccc(N2CCC(C(=O)NCCc3ccccc3C(F)(F)F)CC2)cc1`: the inhibition under setting [1] came out at 14.4%.

With `O=Cc1ccc(N2CCC(C(=O)N(Cc3ccccn3)Cc3ccccn3)CC2)cc1`, the inhibition under setting [1] came to 12.6%.

Regarding `O=Cc1ccc(N2CCC(C(=O)Nc3c(F)cccc3Br)CC2)cc1`, the inhibition under setting [1] was determined as 12.8%.

As for `O=Cc1ccc(N2CCC(C(=O)NCCSCc3ccccc3)CC2)cc1`, under setting [1], the inhibition is 14.2%.

Consider `Cc1cc(CO)c2cccc(CC(=O)Nc3cc(C)[nH]n3)c2n1`, for which the inhibition was determined as 4.74% (Thailand/16681/1984, Concentration 49.95 uM, Number of replicates 2.0, Standard deviation 0.6660500187655393 %) and 12.6% (Thailand/16681/1984, Concentration 99.9 uM, Number of replicates 2.0, Standard deviation 2.9944546877986085 %).

As to `Cc1cnccc1NC(=O)c1cnn(C2CC2)c1`, the inhibition by setting is: (Thailand/16681/1984, Concentration 49.5 uM, Number of replicates 2.0, Standard deviation 1.5729085853089821 %) -4.23%; (Thailand/16681/1984, Concentration 99.01 uM, Number of replicates 2.0, Standard deviation 0.8719029819128717 %) -3.01%; (Thailand/16681/1984, Concentration 198.0 uM, Number of replicates 2.0, Standard deviation 1.2354679349014233 %) -1.49%.

With `O=C(NCC1CCNCC1)c1cc2ccc(-c3ccoc3)cc2[nH]1`, the inhibition (Thailand/16681/1984, Concentration 49.5 uM, Number of replicates 2.0, Standard deviation 1.3389018645311606 %) was -6.77% and the inhibition (Thailand/16681/1984, Concentration 99.01 uM, Number of replicates 2.0, Standard deviation 0.725737036927515 %) is -9.82%.

In the case of `CO[C@H]1C[C@@H](CNCc2nnc3ccccn23)C1`, the inhibition was 2.46% (Thailand/16681/1984, Concentration 49.5 uM, Number of replicates 2.0, Standard deviation 3.3533846096108033 %); 0.715% (Thailand/16681/1984, Concentration 99.01 uM, Number of replicates 2.0, Standard deviation 3.7279623391860772 %); 2.11% (Thailand/16681/1984, Concentration 198.0 uM, Number of replicates 2.0, Standard deviation 3.3163119519010373 %).

On to `CCCCCC(=O)N[C@@H](Cc1ccc(C#N)cc1)C(=O)Nc1cccc(C(N)=O)c1`, for which the inhibition is, setting by setting: (Thailand/16681/1984, Concentration 49.5 uM, Number of replicates 2.0, Standard deviation 2.282349037497578 %) -0.915%; (Thailand/16681/1984, Concentration 99.01 uM, Number of replicates 2.0, Standard deviation 2.0289858707789463 %) -0.916%; (Thailand/16681/1984, Concentration 198.0 uM, Number of replicates 2.0, Standard deviation 1.244964958033368 %) 0.809%.

For `O=Cc1ccc(N2CCC(C(=O)Nc3ccc4scnc4c3)CC2)cc1`, under setting [1], the inhibition turned out to be 13%.

As to `CNC(=O)c1cc(Cl)ccc1NS(=O)(=O)c1ccc(C(=O)N2CCOCC2)cc1`, the inhibition by setting is: (Thailand/16681/1984, Concentration 49.5 uM, Number of replicates 2.0, Standard deviation 0.9242131636205312 %) 0.016%; (Thailand/16681/1984, Concentration 99.01 uM, Number of replicates 2.0, Standard deviation 0.5448647637736805 %) 0.743%; (Thailand/16681/1984, Concentration 198.0 uM, Number of replicates 2.0, Standard deviation 0.08706358790592401 %) 3.74%.

Regarding `COC1CN(C(=O)c2cc(Cl)ccc2NS(=O)(=O)c2ccc(Oc3ccccc3Cl)cc2)C1`, the inhibition is, setting by setting: (Thailand/16681/1984, Concentration 49.5 uM, Number of replicates 2.0, Standard deviation 0.43340110085934463 %) 13.9%; (Thailand/16681/1984, Concentration 99.01 uM, Number of replicates 2.0, Standard deviation 0.8668022017186893 %) 27.6%; (Thailand/16681/1984, Concentration 198.0 uM, Number of replicates 2.0, Standard deviation 1.1631532151634014 %) 43.9%.

On to `Cc1cc(CO)c2cccc(CC(=O)N[C@H](Cc3c[nH]cn3)C(=O)O)c2n1`, for which the inhibition stood at 9.25% (Thailand/16681/1984, Concentration 49.95 uM, Number of replicates 2.0, Standard deviation 0.5871204354474296 %) and 24.8% (Thailand/16681/1984, Concentration 99.9 uM, Number of replicates 2.0, Standard deviation 0.6044303147182479 %).

With `O=Cc1ccc(N2CCC(C(=O)N[C@H](CO)Cc3ccc(Cl)cc3)CC2)cc1`, the inhibition under setting [1] is 14.2%.

`Cc1cc(CO)c2cccc(Cc3cccc(C(=O)N4CC5(CCCOC5)C4)c3)c2n1`: the inhibition by setting is: (Thailand/16681/1984, Concentration 49.95 uM, Number of replicates 2.0, Standard deviation 0.7330249435314733 %) -1.03%; (Thailand/16681/1984, Concentration 99.9 uM, Number of replicates 2.0, Standard deviation 0.45993726244398564 %) 3.33%.

As for `Cc1cc(CO)c2cccc(NC(=O)[C@@H]3CCCC[C@H]3C(=O)O)c2n1`, the inhibition reads like this: (Thailand/16681/1984, Concentration 49.95 uM, Number of replicates 2.0, Standard deviation 1.6403651221128503 %) 4.53%; (Thailand/16681/1984, Concentration 99.9 uM, Number of replicates 2.0, Standard deviation 0.7343808497949172 %) 11.1%.

As to `COCc1cc(-c2ccccc2C(=O)Nc2cnn(C)c2)ccn1`, the inhibition (Thailand/16681/1984, Concentration 49.5 uM, Number of replicates 2.0, Standard deviation 1.4111132401966338 %) is -5.45%; the inhibition (Thailand/16681/1984, Concentration 99.01 uM, Number of replicates 2.0, Standard deviation 1.6255328031848963 %) was -5.34%; the inhibition (Thailand/16681/1984, Concentration 198.0 uM, Number of replicates 2.0, Standard deviation 0.730186058256325 %) was -4.12%.

Consider `O=Cc1ccc(N2CCC(C(=O)N3CCO[C@@H](c4ccccc4)C3)CC2)cc1`, for which the inhibition under setting [1] stood at 8.68%.

As for `Cc1noc([C@@H]2CCCCN2C(=O)C2CCN(c3ccc(C=O)cc3)CC2)n1`, under setting [1], the inhibition was found to be 15%.

For `c1ccc2c([C@H]3CCN(C[C@H]4CCCOC4)C3)c[nH]c2c1`, the inhibition (Thailand/16681/1984, Concentration 49.5 uM, Number of replicates 2.0, Standard deviation 0.2640667803664584 %) was -0.786%; the inhibition (Thailand/16681/1984, Concentration 99.01 uM, Number of replicates 2.0, Standard deviation 0.5290885240264768 %) was -1.17%; the inhibition (Thailand/16681/1984, Concentration 198.0 uM, Number of replicates 2.0, Standard deviation 0.7993630294164077 %) amounted to 0.291%.

For the origin of these results see ChEMBL document CHEMBL5606460, “ASAP - DENV-2 NS2B-NS3 protease fluorescence single point” (2024).
